# The whole screen tested about 390,000 compounds, of which about 930 (0.24%) were called active. The shares of active, inactive and inconclusive entries below differ from those in the screen. Calls follow the shape of the dose curve; as a rule, active = well fitted activation curve with a large enough effect; inconclusive = small, poorly fitted or top-dose-only effect; inactive = no such curve, though single readings can be large or run the other way. A potency beside an inconclusive call is a rough fit, not a confirmed value.
# Assay: qHTS for Suppressors of FUS Proteinopathy: Primary screen using FUS-linked yeast assay; also: nearly all actives have a fitted effect of over 55% in size;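 as to growth rescue (activation): plate controls were DMSO vehicle for no effect and reference control for full effect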
# Details: S. cerevisiae FUS-expressing, OD600, 24 h; Potency: growth rescue; growth rescue (activation): at 76.6 µM (top of the series)
# How it was run: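 Read-out: OD at 600 nm after 24hr at 30C, reporting rescue of FUS-induced yeast toxicity. Cells at OD 0.005 in galactose (2%) minimal medium; compounds tested in a dilution series; CP55940 titration from 92uM final as control.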
# Potency is read from the fitted curve at half-maximal effect; tags tell the direction and shape of the fitted curve.
Compound,Potency,growth rescue (activation)
CSc1ccc(/C=C/C(=O)c2c(O)cc(C)oc2=O)cc1,"inconclusive: 11.2 µM [activator, partial curve]",
COc1cccc(N2CCN(CC(=O)NCc3c(F)cccc3F)CC2)c1,,inactive: 39.2%
c1ccc(Cn2c(SCC3CCC3)nnc2-c2cccnc2)cc1,,inactive: 11.5%
O=C(CCN1C(=O)/C(=C\c2cccs2)SC1=S)Nc1ccc(C(=O)O)cc1,"inconclusive: 3.55 µM [activator, partial curve, poor fit]",
CCCCCCSc1ccc([C@@H]2[C@H]3C(=O)N(CC)C(=O)[C@H]3[C@]3(C(=O)OC)CCCN23)cc1,"inconclusive: 31.6 µM [activator, single point]",
CCCCC1=CC2=C(c3ccco3)C(=O)C(C)(OC(=O)c3ccc(OC)cc3)C(=O)C2=CN1c1ccc(OC)cc1 (stereo not given),"inconclusive: 25.1 µM [activator, single point]",
C=CCN1C(=O)[C@H](CC(=O)NCC23CC4CC(CC(C4)C2)C3)[C@@]2(C(=O)OCC)CCCC=C12,"inconclusive: 31.6 µM [activator, single point]",
O=C(Nc1cccc(C(=O)N2CCN(c3ccc(F)cc3)CC2)c1)c1nsc2ccccc12,"inconclusive: 50.1 µM [activator, single point]",
CCOc1ccc(S(=O)(=O)n2c(C)nc3ccccc32)cc1,,inactive: -16.9%
CCc1c(-c2ccc(Cl)cc2)ncn1Cc1cccc(-c2ccccc2)c1,"inconclusive: 12.6 µM [activator, partial curve]",
CC(=O)Nc1ccc(S(=O)(=O)Nc2nc3ccccc3nc2N2CCCCCC2)cc1,"inconclusive: 35.5 µM [activator, partial curve, poor fit]",
Nn1c(SCC(=O)N2CCOCC2)nnc1-c1cc(-c2ccc(F)cc2)n[nH]1,,inactive: 6.27%
COc1cc(CNc2cccc(C(=O)O)c2)cc(Br)c1OCC(=O)NC(C)(C)C,"inconclusive: 35.5 µM [activator, single point]",
CC1CN(S(=O)(=O)c2ccc(NC(=O)CCCN3C(=O)c4ccccc4C3=O)cc2)CC(C)O1 (stereo not given),"inconclusive: 11.2 µM [activator, partial curve, poor fit]",
CCOC(=O)N1CCN(C(=O)C[C@@H]2C[C@@]3(C(=O)OC)CC(C)(C)CC=C3N(Cc3cccc4ccccc34)C2=O)CC1,"inconclusive: 35.5 µM [activator, single point]",
CCN(CC)S(=O)(=O)c1cnccc1N1CCN(c2cccc(Cl)c2)CC1,,inactive: 16.6%
O=C1c2ccccc2CC1Sc1nnc(-c2ccncc2)o1 (stereo not given),"inconclusive: 50.1 µM [activator, partial curve, poor fit]",
COCCCNC(=O)C[C@H]1C[C@@]2(C(=O)OC)C(=C[C@H](C3CCCC3)O[C@@H]2C)N(CCc2ccc(OC)c(OC)c2)C1=O,,inactive: 22.7%
COc1cc(C(=O)OC2CC3CCC2(C)C3(C)C)ccc1OC(C)=O (stereo not given),"inconclusive: 14.1 µM [activator, partial curve]",
Cc1ccc(C)c(Oc2nnnn2-c2ccccc2)c1,,inactive: -4.47%

Compound,Potency,growth rescue (activation)
CCCCCCCCN1C(=O)[C@@H](CC(=O)NCc2ccccc2)C[C@@]2(C(=O)OC)C1=C[C@H](C(C)C)O[C@@H]2C1CC1,"inconclusive: 5.01 µM [activator, full curve]",
COc1ccc(/C=C2\SC(=N)N(c3nccs3)C2=O)cc1OC,"inconclusive: 7.08 µM [activator, partial curve, poor fit]",
Cc1cc(C)c(OCC(=O)Nc2ccc(NC(=O)c3ccco3)cc2)c([N+](=O)[O-])c1,,inactive: 30.2%
CC(C)C1NC2(C(=O)c3ccccc3C2=O)C2C(=O)N(c3ccc(F)cc3)C(=O)C12 (stereo not given),"inconclusive: 50.1 µM [activator, single point]",
Cc1ccc(S(=O)(=O)c2cn(CC(=O)Nc3ccc4c(c3)OCO4)c3ccc(F)cc3c2=O)cc1,,inactive: 10.4%
N#CC1=C2N=C(N)c3ccccc3N2C2=C(C(=O)CCC2)C1c1ccc(F)cc1 (stereo not given),"inconclusive: 22.4 µM [activator, partial curve, poor fit]",
C[C@@H]1CN([C@H](C)CO)C(=O)CCCn2nncc2CO[C@@H]1CN(C)S(=O)(=O)c1ccccc1F,,inactive: -14.7%
CSCCC1C(=O)OC2(C)CC(C)(C)NC(=S)N12 (stereo not given),,inactive: 4.93%
O=C(N/N=C/C1C(c2ccccc2)C1(Cl)Cl)c1cccc(Cl)c1 (stereo not given),active: 5.62 µM,
COc1ccc(OC)c(NC(=O)CCc2c(C)nc3c(-c4ccccc4)c(C)nn3c2C)c1,"inconclusive: 25.1 µM [activator, partial curve, poor fit]",
CCC(C)(C)c1ccc(Oc2cccc(C(=O)O)c2)cc1,,inactive: 45.6%
CCOC(=O)Cc1csc(NC(=O)COc2ccc3ccccc3c2)n1,,inactive: 12.4%
COc1ccc(-c2[nH]ncc2C(=O)NCc2ccccc2OC)cc1,,inactive: -0.886%
COc1ccc(CNC(=O)C(=O)NCC(c2cccnc2)N2CCN(c3ccccc3F)CC2)cc1 (stereo not given),,inactive: 18.8%
CCC1=C(OC(=O)N(CC)CC)N2C(=O)OC(=NCCc3c[nH]c4ccccc34)[C@]2(Cc2ccccc2)[C@H]2C1=CC[C@H]1C(=O)N(CC(=O)OC)C(=O)[C@H]12,"inconclusive: 10 µM [activator, full curve, poor fit]",
CCc1ccc(C2C(C#N)=C(N)SC(N)=C2C#N)cc1,"inconclusive: 31.6 µM [activator, partial curve, poor fit]",
CCOC(=O)[C@]12CCC=C1N(Cc1cccc3ccccc13)C(=O)[C@H](CC(=O)NCCCCc1ccccc1)C2,"inconclusive: 10 µM [activator, partial curve, poor fit]",
COC(=O)[C@]12CCCCC=C1N(CCc1ccc(OC)c(OC)c1)C(=O)[C@H](CC(=O)NCc1cccc3ccccc13)C2,"inconclusive: 39.8 µM [activator, single point]",
Cc1cccc(NC(=O)COc2cccc3c2CCN(C)C3=O)c1,"inconclusive: 50.1 µM [activator, partial curve, poor fit]",
CCN1CCc2c(sc3c2c(NCc2ccco2)nc2nnnn23)C1,"inconclusive: 14.1 µM [activator, partial curve, poor fit]",

# Source: PubChem BioAssay AID1347120 (National Center for Advancing Translational Sciences (NCATS), 2019)
